These results are taken from publication PMC8730729.

Amino acid sequences for entries named in this document (tags omitted).
UniProt Q86V87: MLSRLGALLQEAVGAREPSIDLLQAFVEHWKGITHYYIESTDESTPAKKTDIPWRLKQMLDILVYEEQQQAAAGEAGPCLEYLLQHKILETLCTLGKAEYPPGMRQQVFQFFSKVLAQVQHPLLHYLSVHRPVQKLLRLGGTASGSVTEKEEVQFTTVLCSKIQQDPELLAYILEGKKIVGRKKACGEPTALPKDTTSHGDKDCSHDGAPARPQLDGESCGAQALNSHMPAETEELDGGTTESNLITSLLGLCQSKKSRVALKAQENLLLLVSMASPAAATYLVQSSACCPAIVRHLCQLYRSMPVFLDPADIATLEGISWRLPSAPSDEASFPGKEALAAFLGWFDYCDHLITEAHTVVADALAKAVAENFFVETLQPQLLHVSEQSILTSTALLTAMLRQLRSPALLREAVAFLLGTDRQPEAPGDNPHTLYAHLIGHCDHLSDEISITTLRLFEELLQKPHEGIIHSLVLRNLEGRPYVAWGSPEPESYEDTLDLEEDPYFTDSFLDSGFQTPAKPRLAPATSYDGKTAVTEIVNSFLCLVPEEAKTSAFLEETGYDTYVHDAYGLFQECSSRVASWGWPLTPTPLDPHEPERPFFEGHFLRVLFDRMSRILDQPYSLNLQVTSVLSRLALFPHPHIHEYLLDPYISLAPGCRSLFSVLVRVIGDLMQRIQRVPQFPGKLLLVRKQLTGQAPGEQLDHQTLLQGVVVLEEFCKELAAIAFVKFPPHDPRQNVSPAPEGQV

For assay [1], the target named is FHIP2A tagged at the carboxy terminus with BioID2 and 3xFLAG (human) (UniProt Q5W0V3). The experiment in a line: co-IP; FLAG affinity resin IP of FHIP-BioID2-3xFLAG baits from stable 293T cell lines; immunoblots with anti-Hook1, anti-Hook2, anti-Hook3; BioID2-3xFLAG as control.
The target in assay [2] is FHIP2B tagged at the carboxy terminus with BioID2 and 3xFLAG (human) (UniProt Q86V87). The assay is described as above.
Assay [3] concerns the target FHIP1A tagged at the carboxy terminus with BioID2 and 3xFLAG (human) (UniProt Q05DH4). Described as above.
For assay [4], the target named is T1, FHIP1B tagged at the carboxy terminus with BioID2 and 3xFLAG (human) (UniProt Q8N612).
T1 sequence: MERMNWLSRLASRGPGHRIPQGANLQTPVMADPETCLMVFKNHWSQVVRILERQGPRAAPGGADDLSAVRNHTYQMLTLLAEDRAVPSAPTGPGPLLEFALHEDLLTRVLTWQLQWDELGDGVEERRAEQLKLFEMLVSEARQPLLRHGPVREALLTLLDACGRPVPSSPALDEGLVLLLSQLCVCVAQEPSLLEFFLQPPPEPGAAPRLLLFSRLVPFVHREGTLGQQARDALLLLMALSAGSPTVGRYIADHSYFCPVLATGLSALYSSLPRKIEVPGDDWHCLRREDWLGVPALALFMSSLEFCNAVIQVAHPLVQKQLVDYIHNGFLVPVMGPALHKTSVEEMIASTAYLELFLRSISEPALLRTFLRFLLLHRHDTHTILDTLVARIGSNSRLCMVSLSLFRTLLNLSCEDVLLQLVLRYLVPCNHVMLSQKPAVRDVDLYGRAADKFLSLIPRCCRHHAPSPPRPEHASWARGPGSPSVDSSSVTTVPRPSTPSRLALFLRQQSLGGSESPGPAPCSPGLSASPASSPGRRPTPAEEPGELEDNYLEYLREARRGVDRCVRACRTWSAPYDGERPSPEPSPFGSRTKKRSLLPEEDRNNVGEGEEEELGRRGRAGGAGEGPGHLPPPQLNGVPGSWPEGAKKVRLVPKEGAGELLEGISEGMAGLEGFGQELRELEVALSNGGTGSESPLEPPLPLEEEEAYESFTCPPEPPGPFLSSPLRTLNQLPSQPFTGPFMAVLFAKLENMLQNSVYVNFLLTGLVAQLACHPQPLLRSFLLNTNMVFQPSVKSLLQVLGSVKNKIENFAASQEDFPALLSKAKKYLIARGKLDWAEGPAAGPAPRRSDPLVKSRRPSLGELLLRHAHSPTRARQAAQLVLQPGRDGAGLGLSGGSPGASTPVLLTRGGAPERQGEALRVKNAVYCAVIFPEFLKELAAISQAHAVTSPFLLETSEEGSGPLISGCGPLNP
The assay is described as above.

Assay [5] concerns the target T2, purified FHIP1B-HaloTag (FHIP1B-HaloTag-TEV-ZZ) (human) (UniProt Q8N612).
T2 sequence (chain, Alexa-660 on the HaloTag (motility assays and copurification with FTS)): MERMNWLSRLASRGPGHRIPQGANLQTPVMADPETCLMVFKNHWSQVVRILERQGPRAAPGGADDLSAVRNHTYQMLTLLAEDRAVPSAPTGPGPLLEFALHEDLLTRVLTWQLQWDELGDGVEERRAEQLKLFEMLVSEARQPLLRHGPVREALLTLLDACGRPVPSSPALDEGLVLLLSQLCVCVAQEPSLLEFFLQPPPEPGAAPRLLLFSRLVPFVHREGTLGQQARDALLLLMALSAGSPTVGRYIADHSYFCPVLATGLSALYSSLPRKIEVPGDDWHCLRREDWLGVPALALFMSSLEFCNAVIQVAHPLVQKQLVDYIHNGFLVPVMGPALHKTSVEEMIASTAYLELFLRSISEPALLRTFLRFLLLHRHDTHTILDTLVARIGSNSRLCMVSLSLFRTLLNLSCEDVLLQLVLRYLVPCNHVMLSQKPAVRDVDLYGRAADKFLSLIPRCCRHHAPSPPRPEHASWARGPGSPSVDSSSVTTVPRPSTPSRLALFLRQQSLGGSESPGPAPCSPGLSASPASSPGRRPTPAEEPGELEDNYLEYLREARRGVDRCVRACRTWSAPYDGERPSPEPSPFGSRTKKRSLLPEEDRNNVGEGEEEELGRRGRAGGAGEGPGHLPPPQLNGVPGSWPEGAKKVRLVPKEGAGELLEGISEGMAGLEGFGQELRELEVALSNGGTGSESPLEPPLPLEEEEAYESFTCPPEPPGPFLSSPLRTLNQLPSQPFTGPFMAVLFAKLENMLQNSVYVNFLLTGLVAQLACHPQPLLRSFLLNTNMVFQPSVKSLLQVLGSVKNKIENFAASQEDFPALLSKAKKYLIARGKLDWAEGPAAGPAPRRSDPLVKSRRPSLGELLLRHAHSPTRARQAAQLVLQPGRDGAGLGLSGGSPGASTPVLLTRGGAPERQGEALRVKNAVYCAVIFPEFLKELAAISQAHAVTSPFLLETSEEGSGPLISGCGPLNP
The experiment in a line: SEC; FHIP1B and FTS co-expressed in Sf9; IgG beads, TEV cleavage, Superdex 200 in 25 mM HEPES pH 7.4, 150 mM KCl, 1 mM DTT; coelution in the peak fractions. (In general: In gel filtration, larger molecules generally elute earlier.)

The target in assay [6] is T3, FHIP1B tagged at the carboxy terminus with BioID2 and 3xFLAG (human), Q8N612.
T3 chain: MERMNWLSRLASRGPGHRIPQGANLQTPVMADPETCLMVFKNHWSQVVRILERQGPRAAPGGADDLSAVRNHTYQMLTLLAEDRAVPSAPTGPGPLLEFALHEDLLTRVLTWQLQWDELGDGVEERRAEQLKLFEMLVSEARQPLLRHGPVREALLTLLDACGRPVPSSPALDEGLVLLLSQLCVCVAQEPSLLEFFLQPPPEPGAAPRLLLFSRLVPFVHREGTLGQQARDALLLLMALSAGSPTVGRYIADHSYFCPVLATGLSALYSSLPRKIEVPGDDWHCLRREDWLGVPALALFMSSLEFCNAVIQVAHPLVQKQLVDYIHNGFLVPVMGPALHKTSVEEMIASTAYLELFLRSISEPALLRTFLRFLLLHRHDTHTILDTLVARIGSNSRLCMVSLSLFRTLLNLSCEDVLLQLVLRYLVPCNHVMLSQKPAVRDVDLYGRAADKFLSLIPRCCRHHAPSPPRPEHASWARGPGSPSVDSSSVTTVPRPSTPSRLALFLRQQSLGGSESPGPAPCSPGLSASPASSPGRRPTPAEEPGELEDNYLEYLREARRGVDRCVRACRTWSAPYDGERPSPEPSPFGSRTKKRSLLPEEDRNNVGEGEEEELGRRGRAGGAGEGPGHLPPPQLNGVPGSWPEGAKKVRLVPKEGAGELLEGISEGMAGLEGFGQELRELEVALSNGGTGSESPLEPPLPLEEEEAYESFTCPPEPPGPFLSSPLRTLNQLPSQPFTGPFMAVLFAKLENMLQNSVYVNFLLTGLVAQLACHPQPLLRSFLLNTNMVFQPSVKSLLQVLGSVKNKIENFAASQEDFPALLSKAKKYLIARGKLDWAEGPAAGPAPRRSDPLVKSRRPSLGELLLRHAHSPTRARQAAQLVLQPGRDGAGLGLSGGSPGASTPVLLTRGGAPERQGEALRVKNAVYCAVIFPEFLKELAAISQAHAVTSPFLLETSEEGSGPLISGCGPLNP
In words: co-IP; FLAG affinity resin IP of FHIP-BioID2-3xFLAG baits from stable 293T cell lines; immunoblots with anti-Hook1, anti-Hook2, anti-Hook3; BioID2-3xFLAG as control. Conditions: remark: other sources report otherwise.

No constants are given. Whether binding was seen depends on the method and setting. For part of these data: Binding seen in cells or lysates may run through a third protein. Some results given as binding are weak or reduced against the parent protein; the word gives no strength. For part of these data: Where a sequence is shown, tags or fusion partners need not be part of it.

B1: Hook3, endogenous in 293T cells (protein, UniProt Q86VS8 1-718)
chain: MFSVESLERAELCESLLTWIQTFNVDAPCQTVEDLTNGVVMAQVLQKIDPAYFDENWLNRIKTEVGDNWRLKISNLKKILKGILDYNHEILGQQINDFTLPDVNLIGEHSDAAELGRMLQLILGCAVNCEQKQEYIQAIMMMEESVQHVVMTAIQELMSKESPVSAGNDAYVDLDRQLKKTTEELNEALSAKEEIAQRCHELDMQVAALQEEKSSLLAENQVLMERLNQSDSIEDPNSPAGRRHLQLQTQLEQLQEETFRLEAAKDDYRIRCEELEKEISELRQQNDELTTLADEAQSLKDEIDVLRHSSDKVSKLEGQVESYKKKLEDLGDLRRQVKLLEEKNTMYMQNTVSLEEELRKANAARSQLETYKRQVVELQNRLSEESKKADKLDFEYKRLKEKVDSLQKEKDRLRTERDSLKETIEELRCVQAQEGQLTTQGLMPLGSQESSDSLAAEIVTPEIREKLIRLQHENKMLKLNQEGSDNEKIALLQSLLDDANLRKNELETENRLVNQRLLEVQSQVEELQKSLQDQGSKAEDSVLLKKKLEEHLEKLHEANNELQKKRAIIEDLEPRFNNSSLKIEELQEALRKKEEEMKQMEERYKKYLEKAKSVIRTLDPKQNQGAAPEIQALKNQLQERDRLFHSLEKEYEKTKSQREMEEKYIVSAWYNMGMTLHKKAAEDRLASTGSGQSFLARQRQATSSRRSYPGHVQPATAR
Turning to B1, the binding result is “binds weakly” in assay [1], “binds” in assay [2], “binds” in assay [3] and “binds” in assay [4].

B2: purified 3XFLAG-SNAP-FTS (protein, UniProt Q9H8T0 1-292)
chain: MNPFWSMSTSSVRKRSEGEEKTLTGDVKTSPPRTAPKKQLPSIPKNALPITKPTSPAPAAQSTNGTHASYGPFYLEYSLLAEFTLVVKQKLPGVYVQPSYRSALMWFGVIFIRHGLYQDGVFKFTVYIPDNYPDGDCPRLVFDIPVFHPLVDPTSGELDVKRAFAKWRRNHNHIWQVLMYARRVFYKIDTASPLNPEAAVLYEKDIQLFKSKVVDSVKVCTARLFDQPKIEDPYAISFSPWNPSVHDEAREKMLTQKKPEEQHNKSVHVAGLSWVKPGSVQPFSKEEKTVAT
On to B2, for which the binding entry in assay [5] is “binds”.

B3: Hook2, endogenous in 293T cells, Q96ED9 1-719 (protein)
chain: MSVDKAELCGSLLTWLQTFHVPSPCASPQDLSSGLAVAYVLNQIDPSWFNEAWLQGISEDPGPNWKLKVSNLKMVLRSLVEYSQDVLAHPVSEEHLPDVSLIGEFSDPAELGKLLQLVLGCAISCEKKQDHIQRIMTLEESVQHVVMEAIQELMTKDTPDSLSPETYGNFDSQSRRYYFLSEEAEEGDELQQRCLDLERQLMLLSEEKQSLAQENAGLRERMGRPEGEGTPGLTAKKLLLLQSQLEQLQEENFRLESGREDERLRCAELEREVAELQHRNQALTSLAQEAQALKDEMDELRQSSERAGQLEATLTSCRRRLGELRELRRQVRQLEERNAGHAERTRQLEDELRRAGSLRAQLEAQRRQVQELQGQRQEEAMKAEKWLFECRNLEEKYESVTKEKERLLAERDSLREANEELRCAQLQPRGLTQADPSLDPTSTPVDNLAAEILPAELRETLLRLQLENKRLCRQEAADRERQEELQRHLEDANRARHGLETQHRLNQQQLSELRAQVEDLQKALQEQGGKTEDAISILLKRKLEEHLQKLHEADLELQRKREYIEELEPPTDSSTARRIEELQHNLQKKDADLRAMEERYRRYVDKARMVMQTMEPKQRPAAGAPPELHSLRTQLRERDVRIRHLEMDFEKSRSQREQEEKLLISAWYNMGMALQQRAGEERAPAHAQSFLAQQRLATNSRRGPLGRLASLNLRPTDKH
Consider B3, for which the binding entry in assay [6] is listed as “no binding”.
